The list shows a part of the results.
Experiments:
Assay in all cases: glycan array binding signal (z-score within array); higher = stronger binding
Conditions in all cases: glycan notation: IUPAC condensed, linker removed
[1] = biological target: Neu5Ac(a2-3)Gal(b1-4)GlcNAc(b1-6)GalNAc
Procedure, shortened: (§1)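 Glycan array binding is given as a within-array Z-score, which can be read as non-binding when negative. The arrays, 3228 of them, came from the Consortium for Functional Glycomics database and were retained only where the protein sequence was available. Z-scores were averaged across arrays of the same protein sequence at different concentrations or buffers and across linkers.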

[2] = biological target: Neu5Ac(a2-3)Gal(b1-4)GlcNAc(b1-6)[Gal(b1-3)]GalNAc
Procedure, shortened: as §1

[3] = biological target: Neu5Ac(a2-3)Gal(b1-4)GlcNAc(b1-6)[Neu5Ac(a2-3)Gal(b1-3)]GalNAc
Procedure, shortened: as §1

[4] = biological target: Neu5Ac(a2-3)Gal(b1-4)GlcNAc6S
Procedure, shortened: as §1

[5] = biological target: Neu5Ac(a2-3)Gal(b1-4)[Fuc(a1-3)]GlcNAc
Procedure, shortened: as §1

[6] = biological target: Neu5Ac(a2-3)Gal(b1-4)[Fuc(a1-3)]GlcNAc(b1-2)Man
Procedure, shortened: as §1

[7] = biological target: Neu5Ac(a2-3)Gal(b1-4)[Fuc(a1-3)]GlcNAc(b1-3)Gal
Procedure, shortened: as §1

[8] = biological target: Neu5Ac(a2-3)Gal(b1-4)[Fuc(a1-3)]GlcNAc(b1-3)Gal(b1-4)GlcNAc
Procedure, shortened: as §1

[9] = biological target: Neu5Ac(a2-3)Gal(b1-4)[Fuc(a1-3)]GlcNAc(b1-3)Gal(b1-4)[Fuc(a1-3)]GlcNAc(b1-3)Gal(b1-4)[Fuc(a1-3)]GlcNAc
Procedure, shortened: as §1

[10] = biological target: Neu5Ac(a2-3)Gal(b1-4)[Fuc(a1-3)]GlcNAc(b1-3)GalNAc
Procedure, shortened: as §1

[11] = biological target: Neu5Ac(a2-3)Gal(b1-4)[Fuc(a1-3)]GlcNAc(b1-6)[Gal(b1-3)]GalNAc
Procedure, shortened: as §1

[12] = biological target: Neu5Ac(a2-3)Gal(b1-4)[Fuc(a1-3)]GlcNAc(b1-6)[Neu5Ac(a2-3)Gal(b1-3)]GalNAc
Procedure, shortened: as §1

[13] = biological target: Neu5Ac(a2-3)Gal(b1-4)[Fuc(a1-3)]GlcNAc6S
Procedure, shortened: as §1

[14] = biological target: Neu5Ac(a2-3)Gal6S(b1-4)GlcNAc
Procedure, shortened: as §1

[15] = biological target: Neu5Ac(a2-3)Gal6S(b1-4)[Fuc(a1-3)]GlcNAc
Procedure, shortened: as §1

Neu5Ac(a2-3)GalNAc = biological target: Neu5Ac(a2-3)GalNAc
Procedure, shortened: as §1

[16] = biological target: Neu5Ac(a2-3)GalNAc(b1-4)GlcNAc
Procedure, shortened: as §1

[17] = biological target: Neu5Ac(a2-3)[GalNAc(b1-4)]Gal(b1-4)Glc
Procedure, shortened: as §1

[18] = biological target: Neu5Ac(a2-3)[GalNAc(b1-4)]Gal(b1-4)GlcNAc
Procedure, shortened: as §1

[19] = biological target: Neu5Ac(a2-3)[GalNAc(b1-4)]Gal(b1-4)GlcNAc(b1-3)GalNAc
Procedure, shortened: as §1

[20] = biological target: Neu5Ac(a2-3)[Neu5Ac(a2-6)]GalNAc
Procedure, shortened: as §1

Neu5Ac(a2-6)Gal = biological target: Neu5Ac(a2-6)Gal
Procedure, shortened: as §1

[21] = biological target: Neu5Ac(a2-6)Gal(b1-3)GlcNAc(b1-3)[Gal(b1-4)GlcNAc(b1-6)]Gal(b1-4)Glc
Procedure, shortened: as §1

Neu5Ac(a2-6)Gal(b1-4)Glc = biological target: Neu5Ac(a2-6)Gal(b1-4)Glc
Procedure, shortened: as §1

[22] = biological target: Neu5Ac(a2-6)Gal(b1-4)GlcNAc
Procedure, shortened: as §1

[23] = biological target: Neu5Ac(a2-6)Gal(b1-4)GlcNAc(b1-2)Man
Procedure, shortened: as §1

[24] = biological target: Neu5Ac(a2-6)Gal(b1-4)GlcNAc(b1-2)Man(a1-3)Man(b1-4)GlcNAc(b1-4)GlcNAc
Procedure, shortened: as §1

[25] = biological target: Neu5Ac(a2-6)Gal(b1-4)GlcNAc(b1-2)Man(a1-3)[Gal(b1-4)GlcNAc(b1-2)Man(a1-6)]Man(b1-4)GlcNAc(b1-4)GlcNAc
Procedure, shortened: as §1

[26] = biological target: Neu5Ac(a2-6)Gal(b1-4)GlcNAc(b1-2)Man(a1-3)[GlcNAc(b1-4)][Neu5Ac(a2-6)Gal(b1-4)GlcNAc(b1-2)Man(a1-6)]Man(b1-4)GlcNAc(b1-4)GlcNAc
Procedure, shortened: as §1

[27] = biological target: Neu5Ac(a2-6)Gal(b1-4)GlcNAc(b1-2)Man(a1-3)[Man(a1-6)]Man(b1-4)GlcNAc(b1-4)GlcNAc
Procedure, shortened: as §1

[28] = biological target: Neu5Ac(a2-6)Gal(b1-4)GlcNAc(b1-2)Man(a1-3)[Neu5Ac(a2-3)Gal(b1-4)GlcNAc(b1-2)Man(a1-6)]Man(b1-4)GlcNAc(b1-4)GlcNAc
Procedure, shortened: as §1

[29] = biological target: Neu5Ac(a2-6)Gal(b1-4)GlcNAc(b1-2)Man(a1-3)[Neu5Ac(a2-6)Gal(b1-4)GlcNAc(b1-2)Man(a1-6)]Man(b1-4)GlcNAc(b1-4)GlcNAc
Procedure, shortened: as §1

[30] = biological target: Neu5Ac(a2-6)Gal(b1-4)GlcNAc(b1-2)Man(a1-3)[Neu5Ac(a2-6)Gal(b1-4)GlcNAc(b1-2)Man(a1-6)]Man(b1-4)GlcNAc(b1-4)[Fuc(a1-6)]GlcNAc
Procedure, shortened: as §1

[31] = biological target: Neu5Ac(a2-6)Gal(b1-4)GlcNAc(b1-2)Man(a1-6)Man(b1-4)GlcNAc(b1-4)GlcNAc
Procedure, shortened: as §1

[32] = biological target: Neu5Ac(a2-6)Gal(b1-4)GlcNAc(b1-2)Man(a1-6)[Gal(b1-4)GlcNAc(b1-2)Man(a1-3)]Man(b1-4)GlcNAc(b1-4)GlcNAc
Procedure, shortened: as §1

[33] = biological target: Neu5Ac(a2-6)Gal(b1-4)GlcNAc(b1-2)Man(a1-6)[GlcNAc(b1-2)Man(a1-3)]Man(b1-4)GlcNAc(b1-4)GlcNAc
Procedure, shortened: as §1

[34] = biological target: Neu5Ac(a2-6)Gal(b1-4)GlcNAc(b1-2)Man(a1-6)[Man(a1-3)]Man(b1-4)GlcNAc(b1-4)GlcNAc
Procedure, shortened: as §1

[35] = biological target: Neu5Ac(a2-6)Gal(b1-4)GlcNAc(b1-2)[Neu5Ac(a2-6)Gal(b1-4)GlcNAc(b1-4)]Man(a1-3)[GlcNAc(b1-4)][Neu5Ac(a2-6)Gal(b1-4)GlcNAc(b1-2)[Neu5Ac(a2-6)Gal(b1-4)GlcNAc(b1-6)]Man(a1-6)]Man(b1-4)GlcNAc(b1-4)GlcNAc
Procedure, shortened: as §1

[36] = biological target: Neu5Ac(a2-6)Gal(b1-4)GlcNAc(b1-2)[Neu5Ac(a2-6)Gal(b1-4)GlcNAc(b1-4)]Man(a1-3)[GlcNAc(b1-4)][Neu5Ac(a2-6)Gal(b1-4)GlcNAc(b1-4)Man(a1-6)]Man(b1-4)GlcNAc(b1-4)GlcNAc
Procedure, shortened: as §1

[37] = biological target: Neu5Ac(a2-6)Gal(b1-4)GlcNAc(b1-2)[Neu5Ac(a2-6)Gal(b1-4)GlcNAc(b1-6)]Man(a1-6)[Neu5Ac(a2-6)Gal(b1-4)GlcNAc(b1-2)Man(a1-3)][GlcNAc(b1-4)]Man(b1-4)GlcNAc(b1-4)GlcNAc
Procedure, shortened: as §1

[38] = biological target: Neu5Ac(a2-6)Gal(b1-4)GlcNAc(b1-3)Gal(b1-3)GlcNAc
Procedure, shortened: as §1

[39] = biological target: Neu5Ac(a2-6)Gal(b1-4)GlcNAc(b1-3)Gal(b1-4)GlcNAc
Procedure, shortened: as §1

[40] = biological target: Neu5Ac(a2-6)Gal(b1-4)GlcNAc(b1-3)Gal(b1-4)GlcNAc(b1-2)Man(a1-3)[Neu5Ac(a2-6)Gal(b1-4)GlcNAc(b1-3)Gal(b1-4)GlcNAc(b1-2)Man(a1-6)]GalNAc
Procedure, shortened: as §1

[41] = biological target: Neu5Ac(a2-6)Gal(b1-4)GlcNAc(b1-3)Gal(b1-4)GlcNAc(b1-3)Gal(b1-4)GlcNAc
Procedure, shortened: as §1

[42] = biological target: Neu5Ac(a2-6)Gal(b1-4)GlcNAc(b1-3)Gal(b1-4)GlcNAc(b1-3)Gal(b1-4)GlcNAc(b1-2)Man(a1-3)[Neu5Ac(a2-6)Gal(b1-4)GlcNAc(b1-3)Gal(b1-4)GlcNAc(b1-3)Gal(b1-4)GlcNAc(b1-2)Man(a1-6)]GalNAc
Procedure, shortened: as §1

B1: Pwp5 ND (Candida glabrata) (protein)
chain: MGSSHHHHHHSSGLVPRGSHMASANPVPLTNVCYFPEEYPRQAGFRAITAGLASTILQGSVDELLNYSGLSSLTTQQTTTTTPNFQLPTLPLPTNVYGLTVVPLYLLVQLQGYFVPPVSGQYTFSLENTNDAAIIFFGNPSAFPCGDLSAWPQASADDITVTDGTFPSRTLFLKAGVAYPMRISYYNSLGSGNLAVSFTDPGGTKRTNWNGYIWRYNSCSTCTYT
- glycan array binding signal (z-score) [1]: 1.67
- glycan array binding signal (z-score) [2]: 0.165
- glycan array binding signal (z-score) [3]: -0.144
- glycan array binding signal (z-score) [4]: -0.3
- glycan array binding signal (z-score) [5]: -0.271
- glycan array binding signal (z-score) [6]: -0.294
- glycan array binding signal (z-score) [7]: -0.263
- glycan array binding signal (z-score) [8]: -0.099
- glycan array binding signal (z-score) [9]: -0.248
- glycan array binding signal (z-score) [10]: -0.138
- glycan array binding signal (z-score) [11]: 0.398
- glycan array binding signal (z-score) [12]: 0.547
- glycan array binding signal (z-score) [13]: 0.989
- glycan array binding signal (z-score) [14]: -0.565
- glycan array binding signal (z-score) [15]: -0.299
- glycan array binding signal (z-score) (Neu5Ac(a2-3)GalNAc): -0.413
- glycan array binding signal (z-score) [16]: -0.168
- glycan array binding signal (z-score) [17]: 0.052
- glycan array binding signal (z-score) [18]: -0.415
- glycan array binding signal (z-score) [19]: -0.287
- glycan array binding signal (z-score) [20]: -0.536
- glycan array binding signal (z-score) (Neu5Ac(a2-6)Gal): -0.576
- glycan array binding signal (z-score) [21]: -0.739
- glycan array binding signal (z-score) (Neu5Ac(a2-6)Gal(b1-4)Glc): 0.116
- glycan array binding signal (z-score) [22]: -0.135
- glycan array binding signal (z-score) [23]: -0.023
- glycan array binding signal (z-score) [24]: 0.131
- glycan array binding signal (z-score) [25]: -0.204
- glycan array binding signal (z-score) [26]: -0.03
- glycan array binding signal (z-score) [27]: -0.067
- glycan array binding signal (z-score) [28]: -0.442
- glycan array binding signal (z-score) [29]: 0.94
- glycan array binding signal (z-score) [30]: 1.39
- glycan array binding signal (z-score) [31]: 0.488
- glycan array binding signal (z-score) [32]: -0.288
- glycan array binding signal (z-score) [33]: 2.4
- glycan array binding signal (z-score) [34]: 0.146
- glycan array binding signal (z-score) [35]: -0.362
- glycan array binding signal (z-score) [36]: -0.613
- glycan array binding signal (z-score) [37]: -0.483
- glycan array binding signal (z-score) [38]: -0.347
- glycan array binding signal (z-score) [39]: -0.115
- glycan array binding signal (z-score) [40]: -0.169
- glycan array binding signal (z-score) [41]: -0.65
- glycan array binding signal (z-score) [42]: 3.34

— the supplement of paper PMC8728848
